Some test systems named below: WM115; WM1716; WM1745; WM3526; WM3619; WM451Lu.
Holding throughout (assay): cell count relative to DMSO control; melanoma cells; higher = more viable cells
What all share (conditions): library dose: low library concentration; 72 h

The list shows a part of the results. Single values are uncertain, as repeats are few or missing.
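Further: cell number obtained by counting DAPI-stained nuclei in high-throughput microscope images with image analysis software, screen run in 1,536-well plates.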

Turning to `COc1cc([C@@H]2c3cc4c(cc3[C@@H](O[C@@H]3O[C@@H]5CO[C@@H](C)O[C@H]5[C@H](O)[C@H]3O)[C@H]3COC(=O)[C@H]23)OCO4)cc(OC)c1O` [etoposide] + CNC(=O)c1cc(Oc2ccc(NC(=O)Nc3ccc(Cl)c(C(F)(F)F)c3)cc2)ccn1 [sorafenib] (first compound 0.02 µM, partner dose 0.4 µM), the cell count in the experiment with WM115 is 97.5%; with WM1716, 88.5%; in the experiment with WM1745, 92.6%; with WM3526, 121%; with WM3619, 97.9%; in the experiment with WM451Lu, 87%.

With `Cn1cnc2c(F)c(Nc3ccc(Br)cc3Cl)c(C(=O)NOCCO)cc21` [selumetinib] + C#Cc1cccc(Nc2ncnc3cc(OCCOC)c(OCCOC)cc23)c1 [erlotinib] (first compound 0.015 µM, partner dose 0.8 µM), the cell count in the experiment on WM115 stood at 82.5%; in the experiment with WM1716 it was 116%; in the experiment with WM1745 it was 82%; in the experiment on WM3526, 54.4%; in the experiment on WM3619, 67.1%; in the experiment with WM451Lu, 124%.

Regarding `COc1cc([C@@H]2c3cc4c(cc3[C@@H](O[C@@H]3O[C@@H]5CO[C@@H](C)O[C@H]5[C@H](O)[C@H]3O)[C@H]3COC(=O)[C@H]23)OCO4)cc(OC)c1O` [etoposide] + O=c1[nH]nc(Sc2ncc([N+](=O)[O-])s2)n1-c1ccc2c(c1)OCCO2 [BI78D3] (first compound 0.02 µM, partner dose 0.2 µM), the cell count with WM115 is 77.9%; in the experiment on WM1716 it was 92.9%; with WM1745, 85.4%; in the experiment on WM3526, 90.6%; in the experiment on WM3619 it was 84.9%; with WM451Lu it was 104%.

On to `C[C@]1(O)C[C@@H](c2nc(-c3ccc4ccc(-c5ccccc5)nc4c3)c3c(N)nccn32)C1` + CC(=O)O[C@@]12CO[C@@H]1C[C@H](O)[C@@]1(C)C(=O)[C@H](O)C3=C(C)[C@@H](OC(=O)[C@H](O)[C@@H](NC(=O)OC(C)(C)C)c4ccccc4)C[C@@](O)([C@@H](OC(=O)c4ccccc4)[C@H]21)C3(C)C [Docetaxel] (first compound 0.4 µM, partner dose 0.0001 µM), for which the cell count in the experiment on WM115 came to 80.8%; in the experiment on WM1716, 42.2%; in the experiment with WM1745, 38.1%; in the experiment on WM3526 it was 27.8%; in the experiment on WM3619 it was 65.7%; in the experiment on WM451Lu it was 62.6%.

On to `COc1cc([C@@H]2c3cc4c(cc3[C@@H](O[C@@H]3O[C@@H]5CO[C@@H](C)O[C@H]5[C@H](O)[C@H]3O)[C@H]3COC(=O)[C@H]23)OCO4)cc(OC)c1O` [etoposide] + Cn1sc(=O)n(Cc2ccccc2)c1=O [TDZD-8] (first compound 0.02 µM, partner dose 0.4 µM), for which the cell count with WM115 was found to be 83.6%; with WM1716, 86.7%; with WM1745, 98.2%; with WM3526, 103%; in the experiment on WM3619, 89.2%; in the experiment with WM451Lu it was 81.6%.

As to `COc1cc([C@@H]2c3cc4c(cc3[C@@H](O[C@@H]3O[C@@H]5CO[C@@H](C)O[C@H]5[C@H](O)[C@H]3O)[C@H]3COC(=O)[C@H]23)OCO4)cc(OC)c1O` [etoposide] + CN(C)S(=O)(=O)c1ccc2c(c1)/C(=C/c1cc3c([nH]1)CCCC3)C(=O)N2 [SU6656] (first compound 0.02 µM, partner dose 0.4 µM), the cell count with WM115 is 77.5%; in the experiment with WM1716 it was 97.4%; in the experiment with WM1745 it was 118%; in the experiment on WM3526, 105%; in the experiment on WM3619 it was 89.3%; with WM451Lu it was 135%.

Consider `Cn1cnc2c(F)c(Nc3ccc(Br)cc3Cl)c(C(=O)NOCCO)cc21` [selumetinib] + CC(=O)O[C@@]12CO[C@@H]1C[C@H](O)[C@@]1(C)C(=O)[C@H](O)C3=C(C)[C@@H](OC(=O)[C@H](O)[C@@H](NC(=O)OC(C)(C)C)c4ccccc4)C[C@@](O)([C@@H](OC(=O)c4ccccc4)[C@H]21)C3(C)C [Docetaxel] (first compound 0.015 µM, partner dose 0.0001 µM), for which the cell count in the experiment with WM115 worked out at 64.6%; with WM1716, 67.6%; in the experiment on WM1745 it was 65.4%; in the experiment with WM3526, 29.8%; in the experiment on WM3619, 52.8%; with WM451Lu, 67.9%.

In the case of `Cn1cnc2c(F)c(Nc3ccc(Br)cc3Cl)c(C(=O)NOCCO)cc21` [selumetinib] + NC(=O)Nc1cc(-c2cccc(F)c2)sc1C(=O)N[C@H]1CCCNC1 [AZD7762] (first compound 0.015 µM, partner dose 0.02 µM), the cell count in the experiment with WM115 was determined as 78.2%; in the experiment on WM1716 it was 112%; with WM1745, 90.4%; in the experiment with WM3526, 80.6%; with WM3619, 63.3%; in the experiment on WM451Lu, 103%.

Regarding `CCN(CC)CCNC(=O)c1c(C)[nH]c(/C=C2\C(=O)Nc3ccc(F)cc32)c1C` [sunitinib] + CCN(CC)CCCCNc1ncc2cc(-c3cc(OC)cc(OC)c3)c(NC(=O)NC(C)(C)C)nc2n1 [PD173074] (first compound 0.4 µM, partner dose 0.1 µM), the cell count with WM115 is 108%; in the experiment on WM1716, 128%; with WM1745 it was 79.2%; with WM3526, 67.8%; in the experiment with WM3619, 97.9%; with WM451Lu, 88%.

For `C[C@]1(O)C[C@@H](c2nc(-c3ccc4ccc(-c5ccccc5)nc4c3)c3c(N)nccn32)C1` + CC(C)CCN1c2nc(Nc3cc(F)c(O)c(F)c3)ncc2N(C)C(=O)C1C [BID1870] (first compound 0.4 µM, partner dose 0.2 µM), the cell count in the experiment on WM115 was determined as 102%; in the experiment with WM1716, 107%; in the experiment with WM1745, 73.7%; with WM3526, 85.5%; in the experiment on WM3619 it was 107%; with WM451Lu, 107%.

Regarding `Cn1cnc2c(F)c(Nc3ccc(Br)cc3Cl)c(C(=O)NOCCO)cc21` [selumetinib] + CS(=O)(=O)CCNCc1ccc(-c2ccc3ncnc(Nc4ccc(OCc5cccc(F)c5)c(Cl)c4)c3c2)o1 [lapatinib] (first compound 0.015 µM, partner dose 0.8 µM), the cell count was found to be 83.5% with WM115; 120% in the experiment with WM1716; 103% in the experiment with WM1745; 77.4% with WM3526; 60.9% with WM3619; 105% with WM451Lu.

Consider `Cn1cnc2c(F)c(Nc3ccc(Br)cc3Cl)c(C(=O)NOCCO)cc21` [selumetinib] + COc1cc2c(Oc3ccc4[nH]c(C)cc4c3F)ncnc2cc1OCCCN1CCCC1 [cediranib] (first compound 0.015 µM, partner dose 0.4 µM), for which the cell count was 91% in the experiment with WM115; 108% in the experiment on WM1716; 69.4% in the experiment on WM1745; 69.2% in the experiment on WM3526; 97% in the experiment with WM3619; 120% with WM451Lu.

On to `CCN(CC)CCNC(=O)c1c(C)[nH]c(/C=C2\C(=O)Nc3ccc(F)cc32)c1C` [sunitinib] + CNC(=O)c1cc(Oc2ccc(NC(=O)Nc3ccc(Cl)c(C(F)(F)F)c3)cc2)ccn1 [sorafenib] (first compound 0.4 µM, partner dose 0.4 µM), for which the cell count in the experiment with WM115 was 93.8%; in the experiment on WM1716 it was 147%; with WM1745, 71.4%; in the experiment with WM3526 it was 79.9%; in the experiment with WM3619 it was 122%; in the experiment on WM451Lu, 109%.

`COc1cc([C@@H]2c3cc4c(cc3[C@@H](O[C@@H]3O[C@@H]5CO[C@@H](C)O[C@H]5[C@H](O)[C@H]3O)[C@H]3COC(=O)[C@H]23)OCO4)cc(OC)c1O` [etoposide] + Cn1cncc1[C@@](N)(c1ccc(Cl)cc1)c1ccc2c(c1)c(-c1cccc(Cl)c1)cc(=O)n2C [tipifarnib] (first compound 0.02 µM, partner dose 0.01 µM): the cell count came out at 90.5% in the experiment with WM115; 78.9% in the experiment with WM1716; 94.1% in the experiment with WM1745; 76.5% with WM3526; 94.3% with WM3619; 79.5% with WM451Lu.

In the case of `C[C@]1(O)C[C@@H](c2nc(-c3ccc4ccc(-c5ccccc5)nc4c3)c3c(N)nccn32)C1` + OCCn1cc(-c2cnc3nnn(Cc4ccc5ncccc5c4)c3n2)cn1 [PF04217903] (first compound 0.4 µM, partner dose 1 µM), the cell count came out at 111% with WM115; 102% in the experiment on WM1716; 73.1% with WM1745; 87.1% in the experiment with WM3526; 65.1% in the experiment on WM3619; 85.1% with WM451Lu.

Take `C[C@]1(O)C[C@@H](c2nc(-c3ccc4ccc(-c5ccccc5)nc4c3)c3c(N)nccn32)C1` + CCc1ccc(CCOc2ccc(CC3SC(=O)NC3=O)cc2)nc1 [pioglitazone] (first compound 0.4 µM, partner dose 2 µM): the cell count in the experiment with WM115 was 99.8%; with WM1716, 100%; in the experiment with WM1745 it was 75.7%; in the experiment on WM3526 it was 78.6%; in the experiment on WM3619 it was 82.8%; in the experiment with WM451Lu, 96.8%.

As to `Cn1cnc2c(F)c(Nc3ccc(Br)cc3Cl)c(C(=O)NOCCO)cc21` [selumetinib] + Cn1sc(=O)n(Cc2ccccc2)c1=O [TDZD-8] (first compound 0.015 µM, partner dose 0.4 µM), the cell count in the experiment on WM115 amounted to 95.8%; with WM1716, 121%; with WM1745, 99.3%; in the experiment with WM3526, 75%; in the experiment with WM3619 it was 73.6%; in the experiment on WM451Lu, 108%.

On to `COc1cc([C@@H]2c3cc4c(cc3[C@@H](O[C@@H]3O[C@@H]5CO[C@@H](C)O[C@H]5[C@H](O)[C@H]3O)[C@H]3COC(=O)[C@H]23)OCO4)cc(OC)c1O` [etoposide] + Cc1nc(Nc2ncc(C(=O)Nc3c(C)cccc3Cl)s2)cc(N2CCN(CCO)CC2)n1 [dasatanib] (first compound 0.02 µM, partner dose 0.004 µM), for which the cell count with WM115 was determined as 73.9%; with WM1716, 78.4%; in the experiment with WM1745 it was 62%; with WM3526, 106%; in the experiment with WM3619 it was 113%; with WM451Lu, 89.3%.

Regarding `COc1cc([C@@H]2c3cc4c(cc3[C@@H](O[C@@H]3O[C@@H]5CO[C@@H](C)O[C@H]5[C@H](O)[C@H]3O)[C@H]3COC(=O)[C@H]23)OCO4)cc(OC)c1O` [etoposide] + COc1ccc2c(c1)CCC1C2CCC2(C)C(NCCCCCCN3C(=O)C=CC3=O)CCC12 [U73122] (first compound 0.02 µM, partner dose 0.4 µM), the cell count in the experiment with WM115 is 90.1%; with WM1716 it was 88%; in the experiment on WM1745, 84.5%; in the experiment with WM3526, 96.6%; in the experiment on WM3619, 85.7%; in the experiment with WM451Lu, 101%.

Take `COc1cc([C@@H]2c3cc4c(cc3[C@@H](O[C@@H]3O[C@@H]5CO[C@@H](C)O[C@H]5[C@H](O)[C@H]3O)[C@H]3COC(=O)[C@H]23)OCO4)cc(OC)c1O` [etoposide] + CN(NC(=O)CC(=O)NN(C)C(=S)c1ccccc1)C(=S)c1ccccc1 [STA4783] (first compound 0.02 µM, partner dose 0.006 µM): the cell count with WM115 came out at 86.1%; in the experiment on WM1716 it was 74%; with WM1745, 51.2%; in the experiment with WM3526 it was 106%; with WM3619, 66.8%; with WM451Lu it was 127%.

Regarding `C[C@]1(O)C[C@@H](c2nc(-c3ccc4ccc(-c5ccccc5)nc4c3)c3c(N)nccn32)C1` + O=C(Nc1cccc(Cl)c1)Nc1ncc(CCNc2ncnc3ccsc23)s1 [SNS314] (first compound 0.4 µM, partner dose 0.0008 µM), the cell count in the experiment on WM115 came to 73.5%; in the experiment with WM1716, 111%; in the experiment on WM1745, 75.3%; in the experiment with WM3526, 96.9%; in the experiment with WM3619, 96%; in the experiment with WM451Lu it was 88.6%.

Regarding `CCN(CC)CCNC(=O)c1c(C)[nH]c(/C=C2\C(=O)Nc3ccc(F)cc32)c1C` [sunitinib] + O=S(=O)(c1ccccc1)N(CC(F)(F)F)c1ccc(C(O)(C(F)(F)F)C(F)(F)F)cc1 [T0901317] (first compound 0.4 µM, partner dose 1.4 µM), the cell count with WM115 is 96.5%; in the experiment on WM1716, 112%; in the experiment with WM1745, 82.7%; in the experiment with WM3526, 86.2%; with WM3619, 105%; in the experiment with WM451Lu, 91.5%.

The values above are taken from the supplement of paper PMC4604168 (melanoma cell lines).
